Laboratory results as given in publication PMC9911399, “Two distinct binding modes provide the RNA-binding protein RbFox with extraordinary sequence specificity”.
Changes are numbered by the printed parent chain; changes in the protein carry UniProt numbers. This is one part of the list.

B1: GAGCGAU (DNA:RNA)
RNA: GGGAGACCGGAAUUCAGAUUGUCCGAGCGAUUUAAAUCCCGUCGUAGCCACCA
DNA 1: CAATCTGAATTCCGGTCTCCC
DNA 2: TGGTGGCTACGACGGGATT
B2: UGCUAUG (DNA:RNA)
RNA: GGGAGACCGGAAUUCAGAUUGUCCUGCUAUGUUAAAUCCCGUCGUAGCCACCA
DNA 1: CAATCTGAATTCCGGTCTCCC
DNA 2: TGGTGGCTACGACGGGATT
B3: ACGGUGG (DNA:RNA)
RNA: B1 RNA with G25A, A26C, C28G, G29U, A30G, U31G
DNA 1: CAATCTGAATTCCGGTCTCCC
DNA 2: TGGTGGCTACGACGGGATT
B4: UGCAAGC (DNA:RNA)
RNA: B2 RNA with U28A, U30G, G31C
DNA 1: CAATCTGAATTCCGGTCTCCC
DNA 2: TGGTGGCTACGACGGGATT
B5: AGUGUAC (DNA:RNA)
RNA: B1 RNA with G25A, A26G, G27U, C28G, G29U, U31C
DNA 1: CAATCTGAATTCCGGTCTCCC
DNA 2: TGGTGGCTACGACGGGATT
B6: AUUAUAC (DNA:RNA)
RNA: B1 RNA with G25A, A26U, G27U, C28A, G29U, U31C
DNA 1: CAATCTGAATTCCGGTCTCCC
DNA 2: TGGTGGCTACGACGGGATT
B7: AUCGUUG (DNA:RNA)
RNA: B2 RNA with U25A, G26U, U28G, A29U
DNA 1: CAATCTGAATTCCGGTCTCCC
DNA 2: TGGTGGCTACGACGGGATT
B8: UACACCU (DNA:RNA)
RNA: B1 RNA with G25U, G27C, C28A, G29C, A30C
DNA 1: CAATCTGAATTCCGGTCTCCC
DNA 2: TGGTGGCTACGACGGGATT
B9: CGAAACG (DNA:RNA)
RNA: B2 RNA with U25C, C27A, U28A, U30C
DNA 1: CAATCTGAATTCCGGTCTCCC
DNA 2: TGGTGGCTACGACGGGATT
B10: GGUUCCU (DNA:RNA)
RNA: B1 RNA with A26G, G27U, C28U, G29C, A30C
DNA 1: CAATCTGAATTCCGGTCTCCC
DNA 2: TGGTGGCTACGACGGGATT
B11: UGCAUGU (DNA:RNA)
RNA: B2 RNA with U28A, A29U, U30G, G31U
DNA 1: CAATCTGAATTCCGGTCTCCC
DNA 2: TGGTGGCTACGACGGGATT
B12: AGUGCAC (DNA:RNA)
RNA: B1 RNA with G25A, A26G, G27U, C28G, G29C, U31C
DNA 1: CAATCTGAATTCCGGTCTCCC
DNA 2: TGGTGGCTACGACGGGATT
B13: CUCCAAA (DNA:RNA)
RNA: B1 RNA with G25C, A26U, G27C, G29A, U31A
DNA 1: CAATCTGAATTCCGGTCTCCC
DNA 2: TGGTGGCTACGACGGGATT
B14: CCGCCGG (DNA:RNA)
RNA: B1 RNA with G25C, A26C, G29C, A30G, U31G
DNA 1: CAATCTGAATTCCGGTCTCCC
DNA 2: TGGTGGCTACGACGGGATT
B15: CAAUGGA (DNA:RNA)
RNA: B1 RNA with G25C, G27A, C28U, A30G, U31A
DNA 1: CAATCTGAATTCCGGTCTCCC
DNA 2: TGGTGGCTACGACGGGATT
B16: AGCUGGU (DNA:RNA)
RNA: B2 RNA with U25A, A29G, U30G, G31U
DNA 1: CAATCTGAATTCCGGTCTCCC
DNA 2: TGGTGGCTACGACGGGATT
B17: GCUUGUA (DNA:RNA)
RNA: B1 RNA with A26C, G27U, C28U, A30U, U31A
DNA 1: CAATCTGAATTCCGGTCTCCC
DNA 2: TGGTGGCTACGACGGGATT
B18: ACGUAGC (DNA:RNA)
RNA: B2 RNA with U25A, G26C, C27G, U30G, G31C
DNA 1: CAATCTGAATTCCGGTCTCCC
DNA 2: TGGTGGCTACGACGGGATT
B19: CGGCUAU (DNA:RNA)
RNA: B1 RNA with G25C, A26G, G29U
DNA 1: CAATCTGAATTCCGGTCTCCC
DNA 2: TGGTGGCTACGACGGGATT
B20: CAUGCGU (DNA:RNA)
RNA: B1 RNA with G25C, G27U, C28G, G29C, A30G
DNA 1: CAATCTGAATTCCGGTCTCCC
DNA 2: TGGTGGCTACGACGGGATT
B21: GACCGAU (DNA:RNA)
RNA: B1 RNA with G27C
DNA 1: CAATCTGAATTCCGGTCTCCC
DNA 2: TGGTGGCTACGACGGGATT
B22: UUGGAAU (DNA:RNA)
RNA: B1 RNA with G25U, A26U, C28G, G29A
DNA 1: CAATCTGAATTCCGGTCTCCC
DNA 2: TGGTGGCTACGACGGGATT
B23: CAGCUCU (DNA:RNA)
RNA: B1 RNA with G25C, G29U, A30C
DNA 1: CAATCTGAATTCCGGTCTCCC
DNA 2: TGGTGGCTACGACGGGATT
B24: AUAAGGA (DNA:RNA)
RNA: B1 RNA with G25A, A26U, G27A, C28A, A30G, U31A
DNA 1: CAATCTGAATTCCGGTCTCCC
DNA 2: TGGTGGCTACGACGGGATT
B25: UUAUGCG (DNA:RNA)
RNA: B2 RNA with G26U, C27A, A29G, U30C
DNA 1: CAATCTGAATTCCGGTCTCCC
DNA 2: TGGTGGCTACGACGGGATT
B26: AAGAUCU (DNA:RNA)
RNA: B1 RNA with G25A, C28A, G29U, A30C
DNA 1: CAATCTGAATTCCGGTCTCCC
DNA 2: TGGTGGCTACGACGGGATT
B27: AGGUUCG (DNA:RNA)
RNA: B2 RNA with U25A, C27G, A29U, U30C
DNA 1: CAATCTGAATTCCGGTCTCCC
DNA 2: TGGTGGCTACGACGGGATT
B28: UAUCCUU (DNA:RNA)
RNA: B1 RNA with G25U, G27U, G29C, A30U
DNA 1: CAATCTGAATTCCGGTCTCCC
DNA 2: TGGTGGCTACGACGGGATT
B29: AGGCGGC (DNA:RNA)
RNA: B1 RNA with G25A, A26G, A30G, U31C
DNA 1: CAATCTGAATTCCGGTCTCCC
DNA 2: TGGTGGCTACGACGGGATT
B30: UCUCCUA (DNA:RNA)
RNA: B2 RNA with G26C, C27U, U28C, A29C, G31A
DNA 1: CAATCTGAATTCCGGTCTCCC
DNA 2: TGGTGGCTACGACGGGATT
B31: CUAGAAG (DNA:RNA)
RNA: B2 RNA with U25C, G26U, C27A, U28G, U30A
DNA 1: CAATCTGAATTCCGGTCTCCC
DNA 2: TGGTGGCTACGACGGGATT

Biological target: T1, RBFOX1 RRM RbFoxmut (Fox-RRM*) (Homo sapiens, UniProt Q9NWB1 109-208, R118D;E147R;N151S;E152T)
T1 sequence: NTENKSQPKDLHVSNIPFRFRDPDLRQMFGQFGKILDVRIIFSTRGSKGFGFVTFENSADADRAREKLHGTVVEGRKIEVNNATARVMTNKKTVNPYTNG
Assay: EMSA; HiTS-Eq, 1 nM pool, 10 min; buffer printed only for the single-RNA assays: 10 mM Tris pH 7.5, 150 mM NaCl, 3.4 mM EDTA, 0.001% NP-40, 30 C
Settings: tags: His6 N-terminal (pET28a); label: 5' 32P
Summary of the method: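 A pool of RNA with 7 randomized nucleotides, 5′-radiolabelled and with DNA-annealed flanks, was equilibrated at 1 nM for 10 min in 50 µL with purified RbFox RRM, wild type or mutant, across increasing protein concentrations. Free RNA was separated by 8% native PAGE, excised, reverse-transcribed, barcoded by PCR and sequenced. Relative association constants were obtained from read-count changes of each RNA species versus the control reaction and normalised to the cognate motif.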

Question: B1 was tested. Which binding signal did it give?
Answer: Its binding signal is 0.0732 KA relative to UGCAUGU.

Question: How did the binding signal turn out when B2 was run?
Answer: Its binding signal is 0.863 KA relative to UGCAUGU.

Question: How did the binding signal turn out when B3 was run?
Answer: The binding signal was 0.133 KA relative to UGCAUGU.

Question: With B4 as the binder, how does the binding signal read?
Answer: The binding signal was 0.0625 KA relative to UGCAUGU.

Question: Which binding signal does the source give for B5 here?
Answer: The binding signal was 0.131 KA relative to UGCAUGU.

Question: Which binding signal does the source give for B6 here?
Answer: Its binding signal is 0.14 KA relative to UGCAUGU.

Question: For B7, which binding signal is on record?
Answer: Its binding signal is 0.175 KA relative to UGCAUGU.

Question: Which binding signal does the source give for B8 here?
Answer: The binding signal was 0.0835 KA relative to UGCAUGU.

Question: For B9, which binding signal is on record?
Answer: The binding signal was 0.085 KA relative to UGCAUGU.

Question: How did the binding signal turn out when B10 was run?
Answer: The binding signal was 0.106 KA relative to UGCAUGU.

Question: B11 was tested. Which binding signal did it give?
Answer: Its binding signal is 1 KA relative to UGCAUGU.

Question: For B12, which binding signal is on record?
Answer: Its binding signal is 0.077 KA relative to UGCAUGU.

Question: How did the binding signal turn out when B13 was run?
Answer: Its binding signal is 0.0937 KA relative to UGCAUGU.

Question: B14 was tested. Which binding signal did it give?
Answer: The binding signal was 0.0808 KA relative to UGCAUGU.

Question: Which binding signal does the source give for B15 here?
Answer: Its binding signal is 0.0658 KA relative to UGCAUGU.

Question: Which binding signal does the source give for B16 here?
Answer: Its binding signal is 0.137 KA relative to UGCAUGU.

Question: How did the binding signal turn out when B17 was run?
Answer: The binding signal was 0.321 KA relative to UGCAUGU.

Question: How did the binding signal turn out when B18 was run?
Answer: The binding signal was 0.122 KA relative to UGCAUGU.

Question: How did the binding signal turn out when B19 was run?
Answer: The binding signal was 0.0735 KA relative to UGCAUGU.

Question: Which binding signal does the source give for B20 here?
Answer: Its binding signal is 0.143 KA relative to UGCAUGU.

Question: With B21 as the binder, how does the binding signal read?
Answer: The binding signal was 0.0842 KA relative to UGCAUGU.

Question: Which binding signal does the source give for B22 here?
Answer: Its binding signal is 0.135 KA relative to UGCAUGU.

Question: Which binding signal does the source give for B23 here?
Answer: The binding signal was 0.0953 KA relative to UGCAUGU.

Question: B24 was tested. Which binding signal did it give?
Answer: Its binding signal is 0.0484 KA relative to UGCAUGU.

Question: B25 was tested. Which binding signal did it give?
Answer: The binding signal was 0.13 KA relative to UGCAUGU.

Question: B26 was tested. Which binding signal did it give?
Answer: Its binding signal is 0.0643 KA relative to UGCAUGU.

Question: How did the binding signal turn out when B27 was run?
Answer: Its binding signal is 0.357 KA relative to UGCAUGU.

Question: Which binding signal does the source give for B28 here?
Answer: Its binding signal is 0.0808 KA relative to UGCAUGU.

Question: How did the binding signal turn out when B29 was run?
Answer: Its binding signal is 0.114 KA relative to UGCAUGU.

Question: With B30 as the binder, how does the binding signal read?
Answer: Its binding signal is 0.07 KA relative to UGCAUGU.

Question: B31 was tested. Which binding signal did it give?
Answer: Its binding signal is 0.0909 KA relative to UGCAUGU.
